Results on 3 molecules are retold here after paper PMC11255602 (Protein Science : A Publication of the Protein Society, 2024).

Where “and” joins values, the source holds several entries; their conditions need not be identical. Equal entries are not always repeated.

First the molecules themselves.
B1: wild type (WT) PRMT1 (His6-TEV-WT PRMT1, humanized) (enzyme)
chain: not shown
B2: H293A PRMT1 (enzyme)
chain: not shown
B3: H421 peptide (Acetyl-…, biotin conjugated to C-terminal lysine) (peptide)
peptide: not shown
modifications: N-terminal acetyl; biotin conjugated to C-terminal lysine

The data set “native gel or EMSA” deals with the molecule itself. Kind of data set: native gel or EMSA.
Data set [1] concerns the molecule itself. In words: other fluorescence titration.
Data set [2] addresses B1. Kind of data set: cross-linking.

Usually stoichiometry N stands for a count of units in the complex or per binding partner. Regarding B1, the “stoichiometry N” value in the data set “native gel or EMSA” is 4 and 2. In data set [1], this molecule yielded an EC50 of 17.9 ± 5 nM. Turning to B2, in “native gel or EMSA”, the “stoichiometry N” value came to 4. On to B3, for which, in data set [2], the binding result is “binds”.
